{"source": "patent US20250121006A1", "about": "“THERAPEUTIC COMBINATIONS COMPRISING ANTI-STEAP2 CHIMERIC ANTIGEN RECEPTOR T CELLS” (AstraZeneca AB, priority 2023, published 2025)", "key": {"LuCaP73 PDX model": {"system": "LuCaP73 PDX model", "assay": "Enzalutamide treatment of LuCaP73 PDX model (tumor volume, body weight)", "assay_type": "in vivo, mice", "experimental": ". Enzalutamide was administered orally, once a day. […] ."}, "[1]": {"system": "AR and STEAP2 expression in LuCaP73 tumors", "assay": "LuCaP73 tumor expression of AR and STEAP2 after enzalutamide", "assay_type": "in vivo, mice", "conditions": "10 mg/kg, day 42, normalized to GAPDH", "experimental": "FIGS. 3A-3B show LuCaP73 tumor expression of androgen receptor (AR; FIG. 3A) and STEAP2 (FIG. 3B) at day 42 following treatment with vehicle or 10 mg/kg enzalutamide (Enza). AR and STEAP2 expression levels were normalized to GAPDH levels."}, "[2]": {"system": "AR, STEAP2 and KLK3 expression in LuCaP70 tumors", "assay": "LuCaP70 tumor expression of AR, STEAP2 and KLK3 after enzalutamide", "assay_type": "in vivo, mice", "conditions": "10, 30, 50, or 80 mg/kg, day 21"}, "[3]": {"system": "STEAP2 membrane staining in LuCaP70 tumors", "assay": "STEAP2 immunohistochemistry (IHC) in LuCaP70 tumors", "assay_type": "in vivo, mice", "source_text": "FIGS. 5D-5E show STEAP2 expression levels in LuCaP70 tumors based on immunohistochemistry (IHC) using an anti-STEAP2 antibody and calculated intensity of tumor membrane staining and percentage of cells stained (H-score; FIG. 5D) and by percent membrane staining in tumors (FIG. 5E) (* indicates p<0.05). […]."}, "STEAP2 in LNCAP cells [4]": {"system": "STEAP2 in LNCAP cells", "assay": "STEAP2 receptor density and antigen binding capacity (ABC) after continuous enzalutamide exposure", "assay_type": "cell-based", "experimental": "STEAP2 receptor density and antigen binding capacity (ABC) after continuous enzalutamide exposure was also measured in LNCAP cells over a 28 day period."}, "LNCAP cells [5]": {"system": "LNCAP cells", "assay": "CAR T cell killing capacity in co-culture with LNCAP cells", "assay_type": "cell-based", "conditions": "5 uM vs DMSO; co-cultured with LNCAP cells; with or without pre-treatment", "experimental": "(§1) LNCAP cells were pre-treated with either 0 or 5 uM of abiraterone or enzalutamide, or DMSO, for 24 hours in complete media. Then, AZD0754 or untransduced T cells were added with or without abiraterone or enzalutamide at a concentration of 5 uM. IFNγ release was also measured by harvesting the cell culture supernatant following 24 hours after CAR T cell treatment. […] Cells were subsequently harvested and RNA extracted for qPCR analysis.\n(§2) 5 uM abiraterone treatment was compared to DMSO, and CAR T cells were compared to untransduced T cells (UT), wherein the LNCAP and/or CAR T or UT cells were pre-treated (PreTx) with abiraterone."}, "IFNγ": {"system": "IFNγ", "assay": "IFNγ release by CAR T cells in co-culture with LNCAP cells", "assay_type": "cell-based", "conditions": "5 uM vs DMSO; co-cultured with LNCAP cells; supernatant 24 hours after CAR T cell treatment", "experimental": "as §1, §2"}, "[6]": {"system": "prostate-specific antigen (PSA), LuCaP73 tumors", "assay": "Serum PSA by ELISA, LuCaP73 PDX model", "conditions": "Day 42, all dosages (10, 30, 50, 80 mg/kg)"}, "[7]": {"system": "prostate-specific antigen (PSA), LuCaP70 tumors", "assay": "Serum PSA by ELISA, LuCaP70 PDX model", "conditions": "Day 21, all dosages (10, 30, 50, 80 mg/kg)"}, "LNCAP cells [8]": {"system": "LNCAP cells", "assay": "Prostate cell line proliferation, LNCAP", "conditions": "compared to 22RV1 cells"}, "22RV1 cells": {"system": "22RV1 cells", "assay": "Prostate cell line proliferation, 22RV1"}, "AZD0754 CAR-T cells": {"system": "AZD0754 CAR-T cells", "assay": "CAR-T cells in blood at day 42, combination study", "conditions": "day 42 blood; enzalutamide 10 mg/kg with AZD0754"}, "STEAP2 in LNCAP cells [9]": {"system": "STEAP2 in LNCAP cells", "conditions": "24, 48, and 72 hours post-treatment"}, "LuCaP70 PDX model": {"system": "LuCaP70 PDX model", "assay": "Enzalutamide treatment of LuCaP70 PDX model (tumor volume, body weight)", "conditions": "10, 30, 50, or 80 mg/kg"}, "LuCaP86.2 PDX model": {"system": "LuCaP86.2 PDX model", "assay": "Enzalutamide treatment of LuCaP86.2 PDX model (tumor volume, body weight)", "conditions": "10, 30, 50, or 80 mg/kg, vs vehicle"}, "Androgen receptor": {"system": "Androgen receptor", "assay": "qPCR of downstream androgen receptor target expression in LNCAP cells", "assay_type": "cell-based", "conditions": "5 uM, 72 hours, vs media, DMSO", "experimental": "as §1"}}, "data": [{"compound": "CNC(=O)c1ccc(N2C(=S)N(c3ccc(C#N)c(C(F)(F)F)c3)C(=O)C2(C)C)cc1F", "note": "[enzalutamide]", "values": [{"measurement": "Tumor volume", "setting": "LuCaP73 PDX model; LuCaP73 PDX, 10, 30, 50, or 80 mg/kg orally once a day, up to 42 days, vs vehicle", "result": "dose-dependent decrease in tumor volume"}, {"measurement": "Body weight", "setting": "LuCaP73 PDX model; mice implanted with LuCaP73, 10, 30, 50, or 80 mg/kg", "result": "slightly improved"}, {"measurement": "Tumor expression of STEAP2", "setting": "[1]", "result": "increased"}, {"measurement": "Tumor expression of androgen receptor (AR)", "setting": "[1]", "result": "increased"}, {"measurement": "Tumor expression of KLK3", "setting": "[2]", "result": "did not have significant changes in expression levels"}, {"measurement": "Tumor expression of STEAP2", "setting": "[2]", "result": "significant dose-dependent increase"}, {"measurement": "Tumor expression of androgen receptor (AR)", "setting": "[2]", "result": "significant dose-dependent increase"}, {"measurement": "STEAP2 1+ distribution of membrane score", "setting": "[3]; 80 mg/kg", "result": "approximately 2%"}, {"measurement": "STEAP2 2+ distribution of membrane score", "setting": "[3]; 80 mg/kg", "result": "approximately 52%"}, {"measurement": "STEAP2 3+ distribution of membrane score", "setting": "[3]; 80 mg/kg", "result": "approximately 46%"}, {"measurement": "STEAP2 H-score (IHC)", "setting": "[3]; 80 mg/kg", "result": "significant effect (p<0.05)"}, {"measurement": "STEAP2% tumor distribution of membrane score", "setting": "[3]; across doses", "result": "dose dependent effect"}, {"measurement": "STEAP2 levels after enzalutamide removal", "setting": "STEAP2 in LNCAP cells [4]; after day 21, through day 28", "result": "STEAP2 levels return to baseline level"}, {"measurement": "STEAP2 receptor density (mean fluorescence intensity, ABC)", "setting": "STEAP2 in LNCAP cells [4]; continuous enzalutamide treatment", "result": "increases STEAP2 receptor density levels up to 21 days"}, {"measurement": "Effect on CAR T killing capacity", "setting": "LNCAP cells [5]", "result": "did not appear to have an effect"}, {"measurement": "Effect on IFNγ release by the CAR T cells", "setting": "IFNγ", "result": "did not appear to have an effect"}, {"measurement": "Serum PSA", "setting": "[6]", "result": "significant decreased in serum PSA"}, {"measurement": "Serum PSA", "setting": "[7]", "result": "significant decreased in serum PSA"}, {"measurement": "LNCAP prostate cell line proliferation", "setting": "LNCAP cells [8]", "result": "more sensitive to androgen receptor antagonist treatment compared to 22RV1 cells"}, {"measurement": "22RV1 prostate cell line proliferation", "setting": "22RV1 cells", "result": "dose dependent manner"}, {"measurement": "Effect on CAR T cell viability", "setting": "AZD0754 CAR-T cells", "result": "not having a negative effect on CAR T cell viability"}, {"measurement": "Effect on CAR T cell viability and phenotype", "setting": "AZD0754 CAR-T cells", "result": "not having a negative effect on CAR T cell viability and phenotype"}, {"measurement": "STEAP2 expression (flow cytometry)", "setting": "STEAP2 in LNCAP cells [9]", "result": "No effect on STEAP2 expression"}, {"measurement": "Body weight", "setting": "LuCaP70 PDX model", "result": "improvement in body weight"}, {"measurement": "Body weight", "setting": "LuCaP86.2 PDX model", "result": "no significant variations in body weight"}]}, {"compound": "abiraterone", "values": [{"measurement": "Effect on CAR T killing capacity", "setting": "LNCAP cells [5]", "result": "did not appear to have an effect"}, {"measurement": "Effect on IFNγ release by the CAR T cells", "setting": "IFNγ", "result": "did not appear to have an effect"}, {"measurement": "Androgen receptor inhibition by qPCR of downstream target expression", "setting": "Androgen receptor", "result": "validated"}, {"measurement": "LNCAP prostate cell line proliferation", "setting": "LNCAP cells [8]", "result": "more sensitive to androgen receptor antagonist treatment compared to 22RV1 cells"}, {"measurement": "22RV1 prostate cell line proliferation", "setting": "22RV1 cells", "result": "dose dependent manner"}, {"measurement": "STEAP2 expression (flow cytometry)", "setting": "STEAP2 in LNCAP cells [9]", "result": "No effect on STEAP2 expression"}]}]}
